Screen size: about 48,000 compounds; about 1,200 (2.5%) were called active. Not shown: some 2% with an inconclusive outcome.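 Rule for the calls: active = activation of at least 60% and not above a set upper limit (about 1 call in 100 departs from these limits); inconclusive = activation of 40% to 60%, or above that upper limit; inactive = activation under 40%.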 The list shows a part of the results.
target: Probable G-protein coupled receptor 32 (Homo sapiens) (UniProt O75388); assay: qHTS for Agonists of Human Resolvin D1 Receptor DRV1; conditions: CHO-K1 GPR32 beta-arrestin PathHunter luminescence, 90 min; at 76.9 µM; stronger effect = higher value; zero percent set by DMSO-only wells
Chain of UniProt O75388 (O75388 whole entry, looked up): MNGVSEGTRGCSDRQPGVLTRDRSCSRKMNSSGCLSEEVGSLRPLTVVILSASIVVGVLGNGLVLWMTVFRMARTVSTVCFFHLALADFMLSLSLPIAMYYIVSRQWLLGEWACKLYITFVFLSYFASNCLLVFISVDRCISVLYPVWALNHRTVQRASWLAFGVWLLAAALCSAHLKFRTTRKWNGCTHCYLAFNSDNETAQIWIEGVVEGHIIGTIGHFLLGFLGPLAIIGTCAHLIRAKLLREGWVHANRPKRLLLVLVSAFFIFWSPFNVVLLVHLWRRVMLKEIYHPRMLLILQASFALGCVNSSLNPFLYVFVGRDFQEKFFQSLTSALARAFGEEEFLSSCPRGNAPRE
Method in brief: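 Using DMSO wells as EC0, agonist-induced signal was taken as chemiluminescence from beta-Gal reconstituted upon beta-arrestin recruitment to GPR32 in CHO-K1 cells after 90 min compound treatment.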

activation, inactive:
CCOC(=O)CNC(c1ccccc1)c1cc(Br)ccc1NC(=O)c1cccc(Cl)c1 (centres undefined) -41.6%, CCc1ccc(NC(=O)C2CCCN(S(=O)(=O)c3ccc(F)cc3)C2)cc1 (centres undefined) 2.89%, Cc1ccc(CN2CCSc3ccc(C(=O)Nc4ccc(C)cc4)cc32)cc1 -21.9%, CCOc1ccc(OCC)c(NC(=O)c2cnc(SC)nc2-c2ccccc2)c1 -15.3%, C[C@]12CC[C@H]3[C@@H](CCC4=CC(=O)CC[C@@]43C)[C@@H]1CC[C@@H]2C(=O)CO -40.7%, Cc1ccc(C)c(NC(=O)CSc2nc3c([nH]c4ccccc43)c(=O)n2-c2ccc(F)cc2)c1 -9.85%, Cc1ccc(Cn2c(=O)n(Cc3ccco3)c(=O)c3oc4ccccc4c32)cc1 -5.55%, Cc1ccc(C)c(Cn2c(=O)n(-c3ccc(Cl)cc3)c(=O)c3c(C)c(C)sc32)c1 8.78%, COc1ccc(CC(=O)NCC(c2ccc(Cl)cc2)N2CCOCC2)cc1 (centres undefined) -3.54%, CN(C)S(=O)(=O)c1ccc2c(c1)nnn2CCNC(=O)Nc1ccc(Cl)cc1 9.71%, Cc1ccc(S(=O)(=O)c2nnn3c2nc(NC2CCCCC2)c2sccc23)cc1 -22.4%, Cc1ccc(C)c(Oc2nc3c(c(=O)n(C)c(=O)n3C)n2Cc2ccccc2)c1 -22.5%, Cc1ccc(Cc2cn3cc(-c4ccccc4)nc3s2)cc1 8.15%, O=C(CSc1nc2c(oc3ccccc32)c(=O)n1Cc1ccco1)Nc1ccccc1 -8.97%, Cc1ccc(CNC(=O)CCS(=O)(=O)c2cc3c(cc2C)NC(=O)CO3)cc1 26.1%, Cc1cccc(CSc2nc(-c3cccc(C)c3)nc3c2Cc2c(CO)cnc(C)c2O3)c1 29.1%, CCCSC1=NC2(CCN(C(=O)NC3CCCCC3)CC2)N=C1c1ccc(Cl)cc1 9.76%, Cc1ccc(CN2CCCN(Cc3c(C)cc(C)cc3C)S2(=O)=O)cc1 -19.1%, CC(C)(C)C(=O)OCc1cc(=O)n2nc(C3CC3)sc2n1 33%, COc1ccc(C)cc1NC(=O)COCc1cc(-c2ccc(F)cc2)on1 -7.44%, COc1cc(Cl)c(C)cc1NC(=O)Cn1cc(S(=O)(=O)N2CCC(C)CC2)c2ccccc2c1=O -3.56%, CCOC(=O)c1cc(-c2ccccc2)n(CC(=O)Nc2ccc(CC)cc2)c1C -13.3%, CCCN(CCC)c1nn2c(=O)c(C(=O)NCc3cc(Br)ccc3OC)cnc2s1 -7.71%, Cc1ccc(N2CCN(S(=O)(=O)c3c(C)[nH]c(=O)[nH]c3=O)CC2C)cc1 (centres undefined) 10.9%, Cc1nn(Cc2noc(C(=O)NC(C)c3ccccc3)n2)c(C)c1Br (centres undefined) -2.72%, COc1ccc(OC)c(CCNC(=O)CCn2c(=O)c3cccn3c3ccc(F)cc32)c1 -24.2%, Cc1cccc(S(=O)(=O)c2cn(C)c3cc(N4CCN(c5ccc(F)cc5)CC4)c(F)cc3c2=O)c1 -5.2%, CC1(C)O[C@@H]2[C@@H](CO[C@@]3(COS(N)(=O)=O)OC(C)(C)O[C@@H]23)O1 -0.901%, COc1cc(NS(=O)(=O)c2ccc(N)cc2)nc(OC)n1 3.07%, CC(C)c1ccc(NC(=O)CSC2=Nc3ccccc3C3=NC(CCC(=O)NCc4ccco4)C(=O)N23)cc1 (centres undefined) 0.505%, CC[N+](CC)(CC(=O)Nc1c(C)cccc1C)Cc1ccccc1 9.35%, COCCCNC(=O)c1sc2nc(C)c(C(=O)Nc3ccc(C)cc3C)c(-c3ccccc3Cl)c2c1N -31.5%, CCc1ccc2oc(-c3ccc(NC(=O)c4cc5ccccc5o4)cc3)nc2c1 6.82%, CCCNC(=O)CCCN1C(=O)CCn2nc(-c3cccn3C)cc21 2.58%, CCc1cc(=O)oc2c(C)c3c(cc12)CN(CCc1ccccc1OC)CO3 -21.4%, COc1ccc(C(=O)NCc2ccc3c(c2)CCN3C(=O)c2ccccc2)cc1 -16.8%, O=C(O)CCCC[C@@H]1CCSS1 -24.7%, Cc1cc(C)cc(Nc2cc(C(=O)NCCCN(C)C3CCCCC3)c3ccccc3n2)c1 -2%, Cc1ccc(Cl)cc1N1CCN(C(=O)c2ccc(CS(=O)c3ccccc3)o2)CC1 (centres undefined) -17.7%, O=C(CCSCc1cnn(-c2ccccc2)c1-n1cccc1)NCc1ccccc1Cl -21.6%, COc1ccc(NS(=O)(=O)c2ccc(-c3cnc(C4CC4)o3)cc2)cc1Cl 3.49%, COCCNC(=O)c1nn(-c2ccc(C)cc2)c(=O)n(C)c1=O -6.11%, COc1ccc(C(CNC(=O)c2oc3cc(C)c(Cl)cc3c2C)N2CCCCC2)cc1 (centres undefined) 1.42%, CC1CCN(S(=O)(=O)c2ccc3nc(NCc4ccccc4)ccc3c2)CC1 -1.72%, COCCNC(=O)CCc1c(C)n(C)c2cc(-c3cc(OC)c(OC)c(OC)c3)nn2c1=O -12.6%, COC(=O)c1scc(-c2ccc(C)cc2)c1S(=O)(=O)N1CCN(c2ccc(C)cc2C)CC1 -34.2%, Cn1c(=O)c(=O)n(C)c2cc(C(=O)NCc3ccccc3Cl)ccc21 -9.71%, O=C(Cn1nc(-c2ccc(Cl)cc2)c2ccccc2c1=O)Nc1cccc(C(F)(F)F)c1 -7.74%, Cn1c(SCc2cc(=O)c3cc(Cl)ccc3[nH]2)nnc1-c1ccccc1 2.31%, COc1cccc(Nc2nc3ccccc3c3nncn23)c1 -5.84%, COc1ccc(C2=NS(=O)(=O)N(C)C(C(=O)N(C)Cc3ccccc3)=C2)cc1OC -3.17%, Cc1ccccc1OCc1nc2ccccc2n1Cc1ccccc1Cl -35.3%, CC(=O)c1ccc(NC(=O)CSc2cn(CC(=O)N(C(C)C)C(C)C)c3ccccc23)cc1 -18.4%, CC(C)CCn1c(Oc2ccccc2F)nc2c1c(=O)n(C)c(=O)n2C -26%, CCCOc1cccc(C2c3c(-c4ccccc4O)n[nH]c3C(=O)N2Cc2ccco2)c1 (centres undefined) 8.88%, Cc1cccc(Nc2ccncc2S(=O)(=O)NC(=O)NC(C)C)c1 7.76%, CCS(=O)(=O)N1CCc2cc(C(=O)Nc3cccc(C(C)=O)c3)ccc21 10.7%, CCCCN(CC)C(=O)CCNS(=O)(=O)c1ccc2c(c1)c(=O)n(C)c(=O)n2C -1.14%, CCCNC(=O)C1Cc2cc(S(=O)(=O)N3CCCCCC3)ccc2N1C(C)=O (centres undefined) -21.4%, CCCNC(=O)Cn1c(=O)c2cccn2c2cccnc21 -1.74%, CCCn1cnc2cc(NCc3ccccc3OCC)ccc21 -29.3%, CCn1c(C(=O)NCc2ccccc2Br)cc2oc3ccccc3c21 24.2%, COC(=O)c1ccc(C(=O)OC)c(NC(=O)c2cc3nc(-c4ccc(C)cc4)cc(C(F)(F)F)n3n2)c1 -8.82%, Cc1ccc(C)c(N2C(=O)N(Cc3cccc(C(F)(F)F)c3)c3ccccc3S2(=O)=O)c1 -19.4%, CCn1c2c(c(=O)n3ncc(C(=O)N4CCN(c5ccc(C(C)=O)cc5)CC4)c13)CN(Cc1ccc(OC)cc1)CC2 4.24%, CCN(CC)C(=O)Cn1c(=O)n(Cc2ccc(C(=O)NCCCOC)cc2)c(=O)c2ccccc21 10%, O=C(Nc1ccc(F)cc1F)c1cc(S(=O)(=O)N2CCCCC2)c[nH]1 18.7%, COc1ccc(F)cc1S(=O)(=O)Nc1ccc2c(c1)CCCN2C(=O)c1cccs1 -16.1%, COc1ccc(C(=O)CCC(=O)Nc2ccc(F)cc2F)cc1 -19.9%, Cc1ccc(C)c(NC(=O)N2CCN3CCCCC3C2)c1 (centres undefined) -8.85%, CC(=O)c1c(C)oc2c1cc(NS(=O)(=O)c1c(C)cc(C)cc1C)c1ccccc12 22.3%, Cc1cc(NC(=O)c2cc(Cl)ccc2Cl)ccc1-c1cc2ccccc2oc1=O -7.38%, CCOC(=O)C1=C(C)N=C2SCCC(=O)N2C1c1ccc(OCc2ccccc2)c(OC)c1 (centres undefined) -8.74%, COC(=O)c1sccc1S(=O)(=O)N(CC(=O)NCc1ccc(C)cc1)c1ccc(C)c(C)c1 7.86%, CCOC(=O)CSc1nc2cc(OC)c(OC)cc2c2nc(-c3ccccc3)nn12 3.78%, NS(=O)(=O)c1ccc(NC(=O)COc2ccc(S(=O)(=O)NC3CCCCC3)cc2)cc1 18.6%, COc1cccc(-n2nnc(-c3nc(-c4cccs4)no3)c2N)c1 2.97%, COc1ccc(NS(=O)(=O)c2ccc3[nH]c(=O)ccc3c2)cc1OC -4.74%, O=C1CS(=O)(=O)C2(C(=O)N(Cc3ccccc3)c3ccccc32)N1c1ccc(F)c(Cl)c1 (centres undefined) 7.01%, CCOc1ccc(S(=O)(=O)Nc2cccc(OC)c2)c2cccnc12 6.72%, CN1C(=O)c2ccccc2Sc2ccc(NC(=O)NCc3ccc(Cl)cc3)cc21 -14.1%, Cc1ccc(CCNC(=O)CN2C(=O)COc3ccc(S(=O)(=O)N4CCCCCC4)cc32)cc1 -36.6%, O=C(Nc1cccc(Cl)c1)c1cc(-c2ccc3c(c2)OCO3)on1 35.1%, COc1ccc(S(=O)(=O)N(CC(=O)Nc2ccccc2Cl)Cc2ccccc2)cc1 -3.32%

From PubChem BioAssay AID1346428 (National Center for Advancing Translational Sciences (NCATS), 2018)
